Laboratory results as given in PubChem BioAssay (NCI).
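96-well plates; 48 h exposure; 5 concentrations. Endpoints by linear interpolation between flanking doses. Not reached: highest tested concentration assigned. TGI is the concentration that stops growth completely.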 For part of its entries the source gives two or more results. They are shown here; other results are not. There may be further records. Records of one sample usually come from different ranges of test concentrations, which the source does not state; some values may only mark the edge of a range.

Key:
Test in all cases: DTP human tumour cell line panel, 48 h
HCC-2998 colon = test system: HCC-2998 colon
MOLT-4 leukemia = test system: MOLT-4 leukemia
CCRF-CEM leukemia = test system: CCRF-CEM leukemia
HCT-15 colon = test system: HCT-15 colon
ACHN renal = test system: ACHN renal
TK-10 renal = test system: TK-10 renal
SF-295 CNS = test system: SF-295 CNS

Structure (SMILES) | TGI (HCC-2998 colon) | TGI (MOLT-4 leukemia) | TGI (CCRF-CEM leukemia) | TGI (HCT-15 colon) | TGI (ACHN renal) | TGI (TK-10 renal) | TGI (SF-295 CNS)
CC(=O)c1ccc2c(c1)C(=O)c1sc(C(C)=O)cc1C2=O | 42.8 µM and 3.31 µM | 2.79 µM and > 100 µM | 50 µM and 462 nM |  |  |  | 
CCC1CC(O)c2c(O)c3c(c(O)c2C1O)C(=O)c1cccc(O)c1C3=O (configuration not stated) (tested in a mixture with another compound) |  |  |  | 260 nM and 2.93 µM | 49 nM and 2.82 µM | 58.9 nM and 2.33 µM | 127 nM and 2.92 µM
